Hit rate of the full screen: of about 45,000 compounds, about 200 (0.44%) were called active. Roughly 7% stayed inconclusive and do not appear here. The call rests on the fitted dose curve; in most records, active means well fitted activation curve with a large enough effect; inconclusive means small, poorly fitted or top-dose-only effect; inactive means no such curve, though single readings can be large or run the other way. Some of the results follow.
Assay: qHTS of TDP-43 Inhibitors: NCGC Sytravon Library Screen; further: 0% is about no effect; nearly all actives have a fitted effect of over 55% in size
Settings: yeast TDP-43 toxicity rescue, BacTiter-Glo growth, 24 h; series mostly up to 46.1 µM; growth rescue (activation): at the top concentration
Excerpt: The goal of this project is to identify new chemical probes capable of reversing the toxicity associated with TDP-43 which is associated with frontotemporal lobar degeneration and amyotrophic lateral sclerosis. These compounds will provide a complementary approach to deciphering the tangled mechanisms of toxicity and protection that we have uncovered through genome-wide genetic screens and are beginning to uncover in a large-scale proteomics analysis with mass spectroscopy. To this end, a miniaturized assay was developed to be screened against the Molecular Libraries Small Molecule Repository (MLSMR) to discover TDP-43 inhibitors. Please note that in the set-up this yeast-based assay compounds that inhibit as TDP-43, have a read-out as activators. NIH Chemical Genomics Center [NCGC] NIH Molecular Libraries Probe Centers Network [MLPCN] Assay Submitter (PI): Susan Lindquist, Whitehead Institute/MIT MLPCN Grant: R21 NS060957
Dispense 2.5 microL yeast galactose medium per 1536-well plate, pin compound, dispense 2.5 microL TDP-43 expressing yeast in galactose medium at OD600=0.02 (pregrown in raffinose medium to mid-log phase) per well, incubate for 24 hr at 30 deg C, and cell growth will be measured using 5 microL of Bactiter/Glo reagent to entire plate and read using Luminescence Protocol in ViewLux.

Row | SMILES | growth rescue (activation)
1 | COc1ccc(CCNC(=O)c2cc(=O)c3ccc(C)cc3o2)cc1OC | inactive: 10.6%
2 | Cc1ccc(C(=O)N2CCN(S(=O)(=O)c3ccc(C)cc3)CC2)cc1 | inactive: 9.44%
3 | COc1ccc(C(=O)Nc2ccc3oc(-c4cccnc4)nc3c2)cc1OC | inactive: 5.86%
4 | CC(OC(=O)c1cccc(S(=O)(=O)Nc2ccccc2F)c1)C(=O)NCc1ccc2c(c1)OCO2 (stereo not drawn) | inactive: -5.25%
5 | CCCCN(CC)C(=O)Cc1ccc(Br)cc1 | inactive: 28%
6 | Cc1ccccc1NC(=O)c1ccccc1NC(=O)c1cccs1 | inactive: 9.55%
7 | CN(c1ccccc1)c1ccc(/C=C/[N+](=O)[O-])cc1 | inactive: -92%
8 | COc1cc(C(=O)OCCNC(=O)c2cccnc2)cc(OC)c1OC | inactive: 14%
9 | CC(C)(C)CN1CCNC(=O)C1CC(=O)NCc1cccc(-n2cccn2)c1 (stereo not drawn) | inactive: 2.33%
10 | Cc1[nH]c(=O)[nH]c(=O)c1S(=O)(=O)N1CCCC(C(=O)N2CCN(c3cccc(C(F)(F)F)c3)CC2)C1 (stereo not drawn) | inactive: 13.2%
11 | CCOc1ccc(NC(=O)Cc2ccccc2)cc1 | inactive: 10.8%
12 | O=C(/C=C/c1ccccc1Cl)NCCc1ccc(F)cc1 | inactive: 1.56%
13 | Cc1occc1C(=O)NNC(=O)c1nn(C)c(=O)c2ccccc12 | inactive: -4.3%
14 | Cc1cc(Br)cc2c1N(Cc1ccccc1OC(C)C)C(=O)C2=O | inactive: -92.3%
15 | COc1ccc2oc(=O)c(C(=O)N3CCN(C(=O)c4ccccc4)CC3)cc2c1 | inactive: 8.09%
16 | O=C(CC(=O)Nc1ccccc1F)Nc1ccccc1F | inactive: 16.8%
17 | COc1cc(C2C3=C(CC(C)(C)CC3=O)N(C)C3=C2C(=O)CC(C)(C)C3)ccc1O | inactive: 10.2%
18 | COc1ccc(CC(=O)Oc2cc(C)ccc2C)cc1 | inactive: 19.6%
19 | O=C(CN1C(=O)c2ccccc2C1=O)OCC(=O)N1CCCCC1 | inactive: -3.43%
20 | COc1cccc(C(=O)NCCCN2CCN(CCCNC(=O)c3cccc(OC)c3)CC2)c1 | inactive: 0.0888%
21 | CC(C)C(CCNCc1ccccn1)c1ccc(Cl)cc1 (stereo not drawn) | inactive: -12%
22 | O=[N+]([O-])c1ccc(NC(=S)NCc2ccncc2)cc1 | inactive: -2.59%
23 | CC(C)(C)C(=O)Nc1ccccc1C(=O)Nc1cccnc1 | inactive: -21.8%
24 | O=C(NCc1ccccn1)C1CCN(Cc2cccc(OCc3ccccc3)c2)CC1 | inactive: 3.28%
25 | CC(=O)Oc1ccc2c(=O)c(N3C(=O)c4ccccc4C3=O)c(C)oc2c1 | inactive: -12.4%
26 | O=C(COC(=O)COc1ccc(Br)cc1)NCc1ccc2c(c1)OCO2 | inactive: -9.66%
27 | O=C(COC(=O)Cn1cnc2ccccc2c1=O)Nc1cc(Cl)ccc1[N+](=O)[O-] | inactive: 14.4%

Row | SMILES | growth rescue (activation)
28 | CCOc1ccc(Br)cc1S(=O)(=O)Nc1ccc(C(=O)OC(C)C(=O)N(C)c2ccccc2)cc1 (stereo not drawn) | inactive: 16.3%
29 | NC(=O)C1CCN(C2=C(NS(=O)(=O)c3ccccc3)C(=O)c3ccccc3C2=O)CC1 | inactive: -8.06%
30 | CNC(=O)C(=O)N/N=C/c1ccccn1 | inactive: -0.0062%
31 | Cc1nnc(NC(=O)C2CC(=O)N(c3ccccc3)C2)s1 (stereo not drawn) | inactive: -2.53%
32 | COc1ccc(C(CNc2ccc(S(C)(=O)=O)cc2[N+](=O)[O-])N(C)C)cc1OC (stereo not drawn) | inactive: -19.7%
33 | CCn1c(SCC(=O)Nc2nccs2)nnc1-c1cc2cccc(OC)c2o1 | inactive: 11.1%
34 | Cn1c(CN2CCCC(C(=O)c3ccc4c(c3)OCO4)C2)nc2ccccc21 (stereo not drawn) | inactive: 9.54%
35 | CC(=O)Nc1ccc(NC(=O)C2CCCN2C(=O)Nc2ccccc2[N+](=O)[O-])cc1 (stereo not drawn) | inactive: 12.3%
36 | CC(Oc1ccccc1)C(=O)NNC(=O)c1cccs1 (stereo not drawn) | inactive: 8.99%
37 | COC(=O)C1=C(C(=O)OC)C(c2cc(Br)ccc2O)c2sc(=O)[nH]c2S1 (stereo not drawn) | inactive: 17.2%
38 | CC(C)(C)NC(=O)NC(=O)CN1c2cccc3cccc(c23)S1(=O)=O | inactive: 11.4%
39 | O=S1(=O)CCN2C(Cc3ccc(SC(F)F)cc3)=CSC2=N1 | inactive: 4.61%
40 | CCOc1ccc(N2C(=O)CN(CC(=O)OC)C2=S)cc1 | inactive: 0.872%
41 | COC(=O)/C=C1/SC(=NC(=O)c2ccc(Cl)cc2)NC1=O | inactive: 27.7%
42 | O=C(NNc1c2ccccc2nc2ccccc12)c1ccc(Cl)cc1 | inactive: 0.0729%
43 | CCOc1ccc(S(=O)(=O)NCc2ccccn2)cc1NC(=O)c1ccccc1F | inactive: 8.66%
44 | CC(=O)c1cccc(NC(=O)C2CCN(C(=O)c3ccccc3Cl)CC2)c1 | inactive: -32.9%
45 | O=C(O)CC1=C(c2ccc(F)cc2)CCC1=O | inactive: 5.06%
46 | C/C(N)=C(/C#N)C(=O)COC(=O)c1cc(-c2cccc(Br)c2)nc2ccccc12 | inactive: -0.539%
47 | Cc1cnc(C(=O)N2CCCC(C(=O)c3ccc(C(F)(F)F)cc3)C2)cn1 (stereo not drawn) | inactive: -0.0568%
48 | CC(NC(=O)C12CC3CC(CC(C3)C1)C2)c1ccc(F)cc1 (stereo not drawn) | inactive: -32.2%
49 | COc1cccc(/C=C2\Oc3cc(OC(=O)N4CCOCC4)ccc3C2=O)c1 | inactive: 7.1%
50 | O=C(CCCCCn1c(=O)[nH]c2ccsc2c1=O)NCc1ccc(F)cc1 | inactive: -9.68%
51 | CC(=O)Nc1ccc(S(=O)(=O)N2CCC(N3CCCCC3)CC2)cc1 | inactive: 1.25%
52 | CC(C)OC(=O)NCCOC(=O)Nc1ccc(Cl)cc1 | inactive: 4.86%
53 | CN(C)S(=O)(=O)c1ccc(Cl)c(C(=O)Nc2ccc(S(=O)(=O)N3CCOCC3)cc2)c1 | inactive: 10.1%

Reference: PubChem BioAssay AID1347073 (National Center for Advancing Translational Sciences (NCATS), 2019)
